In the supplement of paper PMC10928670:
MIC of N. gonorrhoeae strains collected 1971-2005, agar dilution (CLSI M07); ranges 0.03-64 mg/L (penicillin, azithromycin), 0.015-1 (cefixime, ceftriaxone), 0.5-256 (spectinomycin); higher = less susceptible. No active / inactive call per row; the paper counts cefixime and ceftriaxone above 0.25 and azithromycin above 1 mg/L as non-susceptible. The source says 'penicillin'; penicillin G is assumed. Isolates are numbered anew.

Legend:
Assay in all cases: Agar dilution by CLSI M07.
[1] = compound: C=CC1=C(C(=O)O)N2C(=O)[C@@H](NC(=O)/C(=N\OCC(=O)O)c3csc(N)n3)[C@H]2SC1 [cefixime]
[2] = compound: CC1(C)S[C@@H]2[C@H](NC(=O)Cc3ccccc3)C(=O)N2[C@H]1C(=O)O [penicillin G]
[3] = compound: CC[C@H]1OC(=O)[C@H](C)[C@@H](O[C@H]2C[C@@](C)(OC)[C@@H](O)[C@H](C)O2)[C@H](C)[C@@H](O[C@@H]2O[C@H](C)C[C@H](N(C)C)[C@H]2O)[C@](C)(O)C[C@@H](C)CN(C)[C@H](C)[C@@H](O)[C@]1(C)O [azithromycin]
[4] = compound: CN[C@@H]1[C@H](O)[C@H](NC)[C@H]2O[C@@]3(O)C(=O)C[C@@H](C)O[C@H]3O[C@@H]2[C@H]1O [spectinomycin]
[5] = compound: CO/N=C(\C(=O)N[C@@H]1C(=O)N2C(C(=O)O)=C(CSc3nc(=O)c(O)nn3C)CS[C@H]12)c1csc(N)n1 [ceftriaxone]

| Test System | MIC [1] [mg/L] | MIC [2] [mg/L] | MIC [3] [mg/L] | MIC [4] [mg/L] | MIC [5] [mg/L] |
| --- | --- | --- | --- | --- | --- |
| Neisseria gonorrhoeae isolate 1 (GyrA: Wild type, ParC: Wild type, mtrR: G45D, penA: Type IV NonMosaic, A517G, G543S, ponA: L421P, porB: G120K, A121D) | 0.03 | 2 | 0.125 | 16 | 0.03 |
| Neisseria gonorrhoeae isolate 2 (GyrA: Wild type, ParC: Wild type, mtrR: -35A Del, G45D, penA: Type XXII NonMosaic, A517G, ponA: L421P, porB: G120D) | ≤ 0.015 | 2 | 1 | 16 | ≤ 0.015 |
| Neisseria gonorrhoeae isolate 3 (GyrA: Wild type, ParC: Wild type, mtrR: G45D, penA: Type XXII NonMosaic, A517G, ponA: Wild type, porB: Wild type) | ≤ 0.015 | 0.25 | 0.06 | 16 | ≤ 0.015 |
| Neisseria gonorrhoeae isolate 4 (GyrA: Wild type, ParC: Wild type, mtrR: G45S, penA: Type XXII NonMosaic, A517G, ponA: L421P, porB: porB1a) | ≤ 0.015 | 0.5 | 0.25 | 16 | ≤ 0.015 |
| Neisseria gonorrhoeae isolate 5 (GyrA: Wild type, ParC: Wild type, mtrR: -35A Del, G45D, penA: Type XIX NonMosaic, A517G, ponA: Wild type, porB: G120D, A121D) | ≤ 0.015 | 0.25 | 0.25 | 16 | ≤ 0.015 |
| Neisseria gonorrhoeae isolate 6 (GyrA: Wild type, ParC: Wild type, mtrR: Wild type, penA: Type IV NonMosaic, A517G, G543S, ponA: L421P, porB: G120K, A121D) | ≤ 0.015 | > 64 | 0.125 | 16 | ≤ 0.015 |
| Neisseria gonorrhoeae isolate 7 (GyrA: Wild type, ParC: Wild type, mtrR: -35A Del, A39T, penA: Type V Nonmosaic, A517G, G543S, ponA: L421P, porB: A121D) | 0.03 | 2 | 0.25 | 16 | 0.03 |
| Neisseria gonorrhoeae isolate 8 (GyrA: Wild type, ParC: Wild type, mtrR: G45D, penA: Type IV NonMosaic, A517G, G543S, ponA: L421P, porB: G120K, A121D) | 0.03 | 2 | 0.25 | 16 | 0.03 |
| Neisseria gonorrhoeae isolate 9 (GyrA: Wild type, ParC: Wild type, mtrR: G45D, penA: Type I NonMosaic, ponA: Wild type, porB: G120N) | ≤ 0.015 | 0.125 | 0.06 | 8 | ≤ 0.015 |
| Neisseria gonorrhoeae isolate 10 (GyrA: Wild type, ParC: Wild type, mtrR: -35A Del, penA: Type II NonMosaic, A517G, ponA: Wild type, porB: G120K, A121D) | ≤ 0.015 | 32 | 0.06 | 32 | ≤ 0.015 |
| Neisseria gonorrhoeae isolate 11 (GyrA: Wild type, ParC: Wild type, mtrR: G45D, penA: Type IV NonMosaic, A517G, G543S, ponA: L421P, porB: G120K, A121D) | 0.06 | 4 | 0.125 | 32 | 0.06 |
| Neisseria gonorrhoeae isolate 12 (GyrA: Wild type, ParC: Wild type, mtrR: -35A Del, penA: Type IV NonMosaic, A517G, G543S, ponA: L421P, porB: G120K, A121D) | 0.03 | 2 | 0.25 | 32 | 0.06 |
| Neisseria gonorrhoeae isolate 13 (GyrA: Wild type, ParC: Wild type, mtrR: -35A Del, G45D, penA: Type II NonMosaic, A517G, ponA: Wild type, porB: G120D, A121D) | ≤ 0.015 | 0.125 | 0.06 | 8 | ≤ 0.015 |
| Neisseria gonorrhoeae isolate 14 (GyrA: Wild type, ParC: Wild type, mtrR: Wild type, penA: Type I NonMosaic, ponA: Wild type, porB: Wild type) | ≤ 0.015 | 1 | 0.5 | 16 | ≤ 0.015 |
| Neisseria gonorrhoeae isolate 15 (GyrA: S91F, ParC: Wild type, mtrR: G45D, penA: Type IV NonMosaic, A517G, G543S, ponA: L421P, porB: G120K, A121D) | 0.03 | 2 | 0.06 | 16 | 0.03 |
| Neisseria gonorrhoeae isolate 16 (GyrA: Wild type, ParC: Wild type, mtrR: G45D, penA: Type XIX NonMosaic, A517G, ponA: Wild type, porB: G120D, A121D) | ≤ 0.015 | 0.125 | ≤ 0.03 | 32 | ≤ 0.015 |

| Test System | MIC [1] [mg/L] | MIC [2] [mg/L] | MIC [3] [mg/L] | MIC [4] [mg/L] | MIC [5] [mg/L] |
| --- | --- | --- | --- | --- | --- |
| Neisseria gonorrhoeae isolate 17 (GyrA: Wild type, ParC: Wild type, mtrR: G45D, penA: Type XXII NonMosaic, A517G, ponA: L421P, porB: G120D) | ≤ 0.015 | 1 | 1 | 64 | ≤ 0.015 |
| Neisseria gonorrhoeae isolate 18 (GyrA: Wild type, ParC: Wild type, mtrR: -35A Del, penA: Type XXII NonMosaic, A517G, ponA: L421P, porB: G120D, A121D) | ≤ 0.015 | 0.25 | 0.125 | 16 | ≤ 0.015 |
| Neisseria gonorrhoeae isolate 19 (GyrA: S91F, ParC: Wild type, mtrR: G45D, penA: Type IV NonMosaic, A517G, G543S, ponA: L421P, porB: Wild type) | 0.03 | 1 | 0.06 | 32 | 0.06 |
| Neisseria gonorrhoeae isolate 20 (GyrA: Wild type, ParC: Wild type, mtrR: -35A Del, G45D, penA: Type II NonMosaic, A517G, ponA: L421P, porB: G120D) | ≤ 0.015 | 1 | 0.5 | 16 | 0.03 |
| Neisseria gonorrhoeae isolate 21 (GyrA: Wild type, ParC: Wild type, mtrR: Wild type, penA: Type I NonMosaic, ponA: Wild type, porB: Wild type) | ≤ 0.015 | 0.125 | 0.06 | 32 | ≤ 0.015 |
| Neisseria gonorrhoeae isolate 22 (GyrA: Wild type, ParC: Wild type, mtrR: -35A Del, A39T, penA: Type XXII NonMosaic, A517G, ponA: Wild type, porB: Wild type) | ≤ 0.015 | 0.06 | ≤ 0.03 | 16 | ≤ 0.015 |
| Neisseria gonorrhoeae isolate 23 (GyrA: Wild type, ParC: Wild type, mtrR: -35A Del, G45D, penA: Type II NonMosaic, A517G, ponA: Wild type, porB: G120D) | 0.03 | 1 | 1 | 32 | 0.03 |
| Neisseria gonorrhoeae isolate 24 (GyrA: Wild type, ParC: Wild type, mtrR: -35A Del, penA: Type XXII NonMosaic, A517G, ponA: L421P, porB: G120D) | ≤ 0.015 | 1 | 0.25 | 32 | ≤ 0.015 |
| Neisseria gonorrhoeae isolate 25 (GyrA: Wild type, ParC: Wild type, mtrR: -35A Del, A39T, penA: Type V Nonmosaic, A517G, G543S, ponA: L421P, porB: G120K, A121D) | 0.06 | 4 | 0.25 | 32 | 0.06 |
| Neisseria gonorrhoeae isolate 26 (GyrA: Wild type, ParC: Wild type, mtrR: -35A Del, G45D, penA: Type XXII NonMosaic, A517G, ponA: L421P, porB: G120D) | ≤ 0.015 | 1 | 0.25 | 16 | ≤ 0.015 |
| Neisseria gonorrhoeae isolate 27 (GyrA: Wild type, ParC: Wild type, mtrR: G45D, penA: Type XXII NonMosaic, A517G, ponA: L421P, porB: porB1a) | ≤ 0.015 | 0.5 | ≤ 0.03 | 16 | ≤ 0.015 |
| Neisseria gonorrhoeae isolate 28 (GyrA: Wild type, ParC: Wild type, mtrR: -35A Del, penA: Type XXII NonMosaic, A517G, ponA: L421P, porB: G120K, A121D) | 0.03 | > 64 | 1 | 32 | ≤ 0.015 |
| Neisseria gonorrhoeae isolate 29 (GyrA: Wild type, ParC: Wild type, mtrR: Wild type, penA: Type I NonMosaic, ponA: Wild type, porB: Wild type) | 0.03 | 0.06 | 0.06 | 32 | 0.03 |
| Neisseria gonorrhoeae isolate 30 (GyrA: Wild type, ParC: Wild type, mtrR: -35A Del, penA: Type V Nonmosaic, A517G, G543S, ponA: L421P, porB: G120K, A121D) | 0.03 | 2 | 0.25 | 32 | 0.06 |
| Neisseria gonorrhoeae isolate 31 (GyrA: Wild type, ParC: Wild type, mtrR: A39T, penA: Type XXII NonMosaic, A517G, ponA: L421P, porB: porB1a) | ≤ 0.015 | > 64 | 0.125 | 16 | ≤ 0.015 |
| Neisseria gonorrhoeae isolate 32 (GyrA: S91F, ParC: Wild type, mtrR: G45D, penA: Type IV NonMosaic, A517G, G543S, ponA: L421P, porB: G120N) | 0.03 | 1 | 0.06 | 16 | 0.03 |
